We go through 1 molecule from patent US20250195653A1, “MULTIFUNCTIONAL NATURAL KILLER (NK) CELL ENGAGER COMBINATION THERAPY FOR TREATING HEMATOLOGICAL NEOPLASTIC DISORDERS” (SANOFI, priority 2023, published 2025).

Entries after “also recorded” stand apart in the source; their conditions may differ.

In the series the test system is MOLM-13 RFP AML cells. Put plainly: Incucyte in vitro killing assay with NK effector cells, E:T 1:1. In kind it is cell-based. The protocol:
MOLM-13 RFP cells were generated by infecting MOLM-13 (DSMZ, ACC: 554) with the Incucyte® Nuclight Red Lentivirus (Sartorius #4476) to express a nuclear-restricted mKate2 (red fluorescent protein, RFP). MOLM-13 RFP cells were harvested in the same culture medium used for wild-type cells with the addition of 1 μg/mL of puromycin (Gibco, ref #A11138-03) to maintain the selection pressure.
Human NK cells were purified from PBMCs using MACSxpress® Whole Blood NK Cell Isolation Kit (Miltenyi, ref #130-127-695) according to supplier recommendations. […]
Cytotoxicity was evaluated using the Incucyte live-cells analysis system which allows to quantify the number of live fluorescent target cells over time.
First, 50 μL of CD123 NKCE and its isotype control were distributed in the appropriate wells of an F-bottom (flat-bottom) 96-well plate coated with poly-D-lysine (Greiner BioOne ref #655946). CD123 NKCE was tested at 5 ng/mL, while its isotype was evaluated at the highest concentration of 100 ng/ml. […]
The growth/proliferation of MOLM-13 RFP tumor cells was monitored by cell imaging up to 64 h using the Incucyte® S3 with standard scans every 4 h. […] Tumor cells growth/proliferation was calculated by counting the number of red cells at each time point, which was then normalized to the number of cells at time zero and expressed as a percentage.

B1: CD123 NKCE: multifunctional binding protein in F25 format with NKp46-binding and CD123-binding domains and competent Fc binding CD16a; bispecific NK cell engager (protein)
chain 1: DIVMTQSPDSLAVSLGERATINCESSQSLLSSGNQKNYLTWYQQKPGQPPKPLIYWASTRESGVPDRFSGSGSGTDFTLTISSLQAEDVAVYYCQNDYSYPYTFGQGTKLEIKRTVAAPSVFIFPPSDEQLKSGTASVVCLLNNFYPREAKVQWKVDNALQSGNSQESVTEQDSKDSTYSLSSTLTLSKADYEKHKVYACEVTHQGLSSPVTKSFNRGE[here human IgG1 Fc without letters]
chain 2: EVQLVQSGAEVKKPGESLKISCKGSGYSFTDYYMKWARQMPGKGLEWMGDIIPSSGATFYNQKFKGQVTISADKSISTTYLQWSSLKASDTAMYYCARSHLLRASWFAYWGQGTMVTVSSASTKGPSVFPLAPSSKSTSGGTAALGCLVKDYFPEPVTVSWNSGALTSGVHTFPAVLQSSGLYSLSSVVTVPSSSLGTQTYICNVNHKPSNTKVDKRV[here human IgG1 Fc without letters]TGSQVQLVQSGAEVKKPGSSVKVSCKASGYTFSDYVINWVRQAPGQGLEWMGEIYPGSGTNYYNEKFKAKATITADKSTSTAYMELSSLRSEDTAVYYCARRGRYGLYAMDYWGQGTTVTVSSASTKGPSVFPLAPSSKSTSGGTAALGCLVKDYFPEPVTVSWNSGALTSGVHTFPAVLQSSGLYSLSSVVTVPSSSLGTQTYICNVNHKPSNTKVDKRVEPKSCDKTHS
chain 3: DIQMTQSPSSLSASVGDRVTITCRASQDISNYLNWYQQKPGKAPKLLIYYTSRLHSGVPSRFSGSGSGTDFTFTISSLQPEDIATYFCQQGNTRPWTFGGGTKVEIKRTVAAPSVFIFPPSDEQLKSGTASVVCLLNNFYPREAKVQWKVDNALQSGNSQESVTEQDSKDSTYSLSSTLTLSKADYEKHKVYACEVTHQGLSSPVTKSFNRGEC
With B1, the “cytotoxic effect against MOLM-13 RFP cells as single agent” value (5, 10 and 100 ng/ml, compared to isotype control) is “cytotoxic effects”. Further, the “target cell lysis, single agent” value (CD123 NKCE 5 ng/mL, AZA 600 nM or VEN 2 nM, with NK cells) is “increased target cell lysis; also recorded: some target lysis”.
